# From article PMC4336329 (PLoS ONE, 2015)
# In all, about 310,000 compounds went through this assay and about 14,000 (4.5%) showed an effect of 50% or more. The effect is printed as a negative number. The list shows a part of the results.
# Biological target: human ether-à-go-go-related gene (hERG) potassium channel (human, UniProt Q12809)
# Test: primary screen, population patch clamp on CHO cells stably expressing hERG
# 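Note: peak tail current of the secondary pulse compared with the same well before compound.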
# Chain of human ether-à-go-go-related gene (hERG) potassium channel (Q12809 whole entry, looked up): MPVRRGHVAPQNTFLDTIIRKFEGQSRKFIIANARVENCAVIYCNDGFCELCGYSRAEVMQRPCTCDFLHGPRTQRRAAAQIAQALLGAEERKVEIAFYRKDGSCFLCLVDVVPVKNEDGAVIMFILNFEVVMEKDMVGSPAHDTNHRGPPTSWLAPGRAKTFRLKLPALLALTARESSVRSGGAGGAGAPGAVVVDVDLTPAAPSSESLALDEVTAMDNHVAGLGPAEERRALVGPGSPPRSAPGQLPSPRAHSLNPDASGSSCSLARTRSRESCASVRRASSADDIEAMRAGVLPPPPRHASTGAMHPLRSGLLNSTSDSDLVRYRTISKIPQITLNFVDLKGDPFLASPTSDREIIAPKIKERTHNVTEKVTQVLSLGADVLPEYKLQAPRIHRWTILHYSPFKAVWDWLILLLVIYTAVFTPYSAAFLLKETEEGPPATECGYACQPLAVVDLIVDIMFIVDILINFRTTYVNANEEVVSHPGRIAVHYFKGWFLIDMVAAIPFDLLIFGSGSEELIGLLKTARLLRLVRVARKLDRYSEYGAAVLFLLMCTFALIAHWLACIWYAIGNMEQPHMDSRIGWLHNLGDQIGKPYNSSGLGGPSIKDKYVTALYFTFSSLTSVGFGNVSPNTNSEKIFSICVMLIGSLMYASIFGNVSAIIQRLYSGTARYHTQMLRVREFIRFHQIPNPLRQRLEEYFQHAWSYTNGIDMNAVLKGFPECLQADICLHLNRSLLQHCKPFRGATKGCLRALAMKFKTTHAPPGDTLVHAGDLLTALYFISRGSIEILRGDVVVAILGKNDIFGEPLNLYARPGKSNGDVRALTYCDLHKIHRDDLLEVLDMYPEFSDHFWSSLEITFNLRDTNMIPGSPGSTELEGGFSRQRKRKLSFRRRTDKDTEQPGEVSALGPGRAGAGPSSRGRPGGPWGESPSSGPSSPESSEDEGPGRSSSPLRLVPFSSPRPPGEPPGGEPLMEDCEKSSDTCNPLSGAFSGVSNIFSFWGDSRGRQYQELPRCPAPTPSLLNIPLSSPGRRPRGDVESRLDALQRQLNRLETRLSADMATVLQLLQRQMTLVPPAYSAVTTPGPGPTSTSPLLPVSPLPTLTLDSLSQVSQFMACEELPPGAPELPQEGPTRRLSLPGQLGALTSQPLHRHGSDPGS
row,SMILES,"hERG current change (%, negative = inhibition) at 10uM"
1,Cc1ccc(S(=O)(=O)/N=C(\CN2CCOCC2)N2CCOCC2)cc1,29.2%
2,CC(/C=N\NC(=O)Cn1cncn1)=C/c1ccc(C(C)C)cc1,-14.9%
3,CCOc1cc(CNCCN(C)C)c(Cl)cc1OCC(=O)NCCc1ccccc1.Cl,-10.8%
4,CC(C)C(NS(=O)(=O)c1cccc2nsnc12)C(=O)NCc1ccco1 (stereo not shown),1.68%
5,C[C@@H](C(=O)NCCCCCC(=O)O)n1nnc2ccccc2c1=O,5.45%
6,O=C1C=Cc2ccccc2/C1=C/c1[nH]c(=O)[nH]c1O,7.87%
7,CC(Oc1ccc(-c2ccccc2)c(F)c1)c1ccn(S(=O)(=O)c2ccc(F)cc2)n1 (stereo not shown),16%
8,COc1ccc(N(CC(=O)NCc2ccco2)S(C)(=O)=O)c(OC)c1,16.6%
9,CCN1CCN(c2cc(C)nc(-c3ccccc3O)n2)CC1,-58.9%
10,CC1C(=O)NN=C1C(=O)N/N=C\c1ccc(O)cc1O (stereo not shown),8.46%
11,CCOC(=O)C(=O)c1csc(NC(=O)COc2ccc(N(C)S(=O)(=O)c3ccc(F)cc3)cc2)n1,-6.13%
12,CN(Cc1c(F)cccc1Cl)C(=O)c1ccc(NS(=O)(=O)c2ccc3[nH]c(=O)[nH]c3c2)cc1,-7.03%
13,CN(CC(=O)NCC1CCCCC1)S(=O)(=O)c1ccc(F)cc1,7.11%
14,O=C(Nc1cn(-c2ccccc2)nc1-c1ccccc1)c1ccccc1,12.2%
15,CC(=O)N1CCC(O)(c2cccc(C(F)(F)F)c2)CC1,12.7%
16,CC(C)OC(=O)CN1C(=O)c2ccccc2C1=O,11.2%
17,O=C(CCc1nc2ccccc2c(=O)[nH]1)Nc1cccc(S(=O)(=O)N2CCOCC2)c1,-5.63%
18,O=C(C[n+]1cccc(CNC(=O)c2ccc(OC(F)F)cc2)c1)Nc1ccc(SC(F)F)cc1.[Cl-],-41.1%
19,C/C(=N\NC(=O)COc1ccc(C(C)(C)C)cc1)c1ccc2c(c1)OCCO2,17.6%
20,O=c1c2c3nc4ccccc4nc3n(/N=C/c3ccncc3)c2ncn1-c1ccccc1,2.42%
21,COc1ccc(-n2nc(C(=O)N(C)C3CCCCC3)c3ccccc3c2=O)c(OC)c1,6.22%
22,O=c1cccccc1NN=C1CCCCC1,2.31%
23,Cc1ccc(-n2c(Cc3ccccc3)nnc2SCC(=O)NNC(=O)Cc2ccccc2)cc1,-1.22%
24,N#CC1=C(SCC(=O)Nc2ccc(C(=O)O)cc2)NC(=O)CC1c1ccco1 (stereo not shown),-4.03%
25,CCOC(=O)Cc1csc(SCn2nnc3ccccc3c2=O)n1,6.87%
26,COc1cccc(NC(=O)Nc2ccc3c(c2)N(C)C(=O)CS3)c1,2.72%
27,FC(F)(F)c1cc(-c2cccs2)n[nH]1,6.36%
28,O=C1CN(C(=O)COC(=O)CNC(=O)c2ccc(Cl)cc2)c2ccccc2N1,-6.75%

row,SMILES,"hERG current change (%, negative = inhibition) at 10uM"
1,COC(=O)c1[nH]nc2c1C(=O)N(Cc1ccccc1)C2=O,10.3%
2,NS(=O)(=O)c1ccc(CCNCC(=O)NCc2ccccc2Cl)cc1.O=C(O)C(=O)O,-5.3%
3,CCOc1cc(/C=N/NC(=O)NN(C)c2ncc(C(F)(F)F)cc2Cl)ccc1O,-54.3%
4,O=C(Nc1ccon1)c1cccc(S(=O)(=O)N2CCCCCC2)c1,-4.39%
5,CCCOc1cccc(C(=O)Nc2ccc(Br)cc2F)c1,-0.53%
6,Cn1c(C(=O)N2CCN(c3nc4ccccc4s3)CC2)cc2sccc21,-8.35%
7,Cc1[nH]c(C)c(S(=O)(=O)NCc2ccc(F)cc2)c1C(=O)N1CCCCC1,0.0922%
8,O=C(O)C(Cc1c[nH]c2ccccc12)N1C(=O)C2C3c4ccccc4C(c4ccccc43)C2C1=O (stereo not shown),36.8%
9,CC(=O)Nc1ccc(/C=N/Nc2nc3ccccc3[nH]2)cc1,17.9%
10,Cn1c(NCc2c(O)ccc3ccccc23)nc2ccccc21,3.9%
11,CC1CN(c2nc3ccccn3c(=O)c2C=O)CC(C)O1 (stereo not shown),16.2%
12,COc1ccc(N(CC(=O)NCc2ccco2)S(=O)(=O)c2ccc(C)cc2)cc1,-25.2%
13,CSc1cnn(-c2ccccc2)c(=O)c1SC,13.9%
14,COc1ccc(C)cc1S(=O)(=O)N(C)CC(=O)NC1CCCCC1,8.63%
15,CN(C)NC1CC(=O)N(c2ccccc2)C1=O (stereo not shown),15.9%
16,CCN(CC(=O)Nc1c(F)cccc1F)C(=O)CCc1nc2ccccc2c(=O)[nH]1,8.25%
17,O=C(NCCc1ccccc1)N1c2ccccc2Sc2ccccc21,-2.74%
18,CCc1ccccc1NC(=O)CN(C)C(=O)Cn1cc(C(F)(F)F)cc(Cl)c1=O,7.64%
19,Cn1nnnc1NC(=O)c1ccccc1Cl,14.8%
20,Cc1nn(C)c(C(=O)Nc2ccn(Cc3c(F)c(F)cc(F)c3F)n2)c1[N+](=O)[O-],4.27%
21,CN(C(=O)CCNC(=O)Cn1cnc2ccccc2c1=O)c1ccccc1F,5.75%
22,O=C(c1ccccc1NS(=O)(=O)c1cccc(C(F)(F)F)c1)N1CCc2ccccc21,31.8%
23,COc1cc(C(=O)N2CCN(Cc3ccccn3)CC2)cc(OC)c1OC.O=C(O)C(=O)O,18.9%
24,O=C(CN1c2cccc3cccc(c23)S1(=O)=O)Nc1ccccc1,24.3%
25,Cc1csc2nc(CSc3nc4ccccc4o3)cn12,-11.5%
26,NS(=O)(=O)c1ccc(CCNC(=O)c2ccc(C(=O)c3ccccc3)cc2)cc1,21.4%
27,COc1ccc(/C=N/NS(=O)(=O)c2ccccc2)cc1OC,1.45%
